Columns and labels:
[1] = test system: HL-60 cells; assay: Cytotoxicity in combination with doxorubicin; type: cell-based, human; conditions: doxorubicin alone; cell viability at the maximum agent concentration tested
[2] = test system: collagen induced arthritis (CIA) model of RA; conditions: cited from earlier work
[3] = test system: dextran sodium sulphate (DSS) model of Ulcerative Colitis; conditions: cited from earlier work

SMILES | % Survival [1] [%] | disease severity [2] | disease severity [3]
COc1cccc2c1C(=O)c1c(O)c3c(c(O)c1C2=O)C[C@@](O)(C(=O)CO)C[C@@H]3O[C@H]1C[C@H](N)[C@H](O)[C@H](C)O1 [Doxorubicin] | 12.0 ± 4.4 |  | 
N=C(CCl)NCCC[C@H](NC(=O)c1ccccc1)C(N)=O.O=C(O)C(F)(F)F [Compound 1, Cl-amidine] |  | decreases disease severity | decreases disease severity
